In the supplement of paper PMC11098506:
± gives the standard deviation of the averaged measurements. Some of the results follow.

B1: VDAC2; numbered along this chain (parent)
chain: MATHGQTCARPMCIPPSYADLGKAARDIFNKGFGFGLVKLDVKTKSCSGVEFSTSGSSNTDTGKVTGTLETKYKWCEYGLTFTEKWNTDNTLGTEIAIEDQICQGLKLTFDTTFSPNTGKKSGKIKSSYKRECINLGCDVDFDFAGPAIHGSAVFGYEGWLAGYQMTFDSAKSKLTRNNFAVGYRTGDFQLHTNVNDGTEFGGSIYQKVCEDLDTSVNLAWTSGTNCTRFGIAAKYQLDPTASISAKVNNSSLIGVGYTQTLRPGVKLTLSALVDGKSINAGGHKVGLALELEA
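Further: sorting relied on GFP fluorescence, which stays low in these cells lacking VDAC2 and climbs sharply once wild-type VDAC2 is expressed.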

Variants of: B1
Assay: log2 fold difference of barcode abundance, GFP-BAK-high vs GFP-BAK-low sorted fraction (log2 ratio); higher = VDAC2 variant stabilises more GFP-BAK at mitochondria
Settings: with BAK1 (mouse, GFP-tagged), Mcl1-/- Bax-/- Bak-/- Vdac2-/- MEF + GFP-mBAK
Description: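 Deep mutational scan of human VDAC2 (FLAG-tagged) with single amino acid substitutions at positions Q165–F180 (β10–11 loop), each barcoded clone expressed by retrovirus in Mcl1/Bax/Bak/Vdac2-deficient MEFs that also express GFP-tagged mouse BAK. Cells were sorted into GFP-high and GFP-low fractions and barcodes counted by Illumina sequencing. The score is log2(CPM) in GFP-BAK-high minus log2(CPM) in GFP-BAK-low, per barcode; barcodes of the same variant are averaged. It reports BAK recruitment and stabilisation at the mitochondrial outer membrane.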
For D169W, the log2 fold difference was -0.337 ± 0.68.
Work on D169Y yielded a log2 fold difference of -0.525 ± 0.68.
In the case of D169C, the log2 fold difference is reported as 0.481 ± 0.68.
With D169P the log2 fold difference was -1.02 ± 1.3.
D169T gave a log2 fold difference of -1.08 ± 1.
Variant D169V has a log2 fold difference of -0.67 ± 1.3.
With D169I the log2 fold difference was -0.709 ± 0.91.
Variant D169Q has a log2 fold difference of -1.44 ± 0.75.
With D169R the log2 fold difference was -0.636 ± 1.1.
D169M gave a log2 fold difference of 0.201.
Work on D169G yielded a log2 fold difference of -0.778 ± 0.72.
For D169S, the log2 fold difference was -1.04 ± 0.68.
Work on D169A yielded a log2 fold difference of -1.07 ± 0.6.
For D169N, the log2 fold difference was -0.758 ± 0.54.
D169E showed a log2 fold difference of -0.54 ± 0.48.
Variant D169K has a log2 fold difference of -0.698 ± 0.87.
For D169H, the log2 fold difference was 0.00625 ± 1.
D169F showed a log2 fold difference of -0.427 ± 1.1.
D169L gave a log2 fold difference of -0.24 ± 0.9.
For unchanged, the log2 fold difference was 0.0191 ± 1.
With T167K the log2 fold difference was -0.673 ± 1.6.
In the case of T167M, the log2 fold difference is reported as -0.675 ± 0.74.
For T167A, the log2 fold difference was -0.638 ± 0.85.
T167W showed a log2 fold difference of -0.703 ± 0.47.
Variant T167I has a log2 fold difference of 0.492 ± 0.69.
With T167N the log2 fold difference was -0.389 ± 1.1.
T167V gave a log2 fold difference of -0.201 ± 1.3.
Variant T167L has a log2 fold difference of -0.514 ± 0.92.
With T167E the log2 fold difference was 0.785 ± 0.23.
Work on T167D yielded a log2 fold difference of -1.29 ± 0.21.
T167R showed a log2 fold difference of -0.172 ± 1.1.
T167S showed a log2 fold difference of 0.157 ± 0.92.
In the case of T167C, the log2 fold difference is reported as 0.94 ± 0.38.
Variant T167Y has a log2 fold difference of -0.858 ± 0.097.
T167P was tested, and the log2 fold difference was -0.524 ± 0.28.
T167H showed a log2 fold difference of -0.0254 ± 0.79.
T167F was tested, and the log2 fold difference was 0.381 ± 1.1.
Variant T167Q has a log2 fold difference of -0.634 ± 0.49.
Variant T167G has a log2 fold difference of -0.41 ± 0.98.
For M166W, the log2 fold difference was 1.32 ± 0.81.
M166Y showed a log2 fold difference of -0.902 ± 0.41.
M166G showed a log2 fold difference of -0.0276 ± 0.92.
In the case of M166L, the log2 fold difference is reported as -0.137 ± 0.7.
In the case of M166F, the log2 fold difference is reported as 0.244 ± 0.41.
For M166R, the log2 fold difference was -0.911 ± 0.78.
Work on M166H yielded a log2 fold difference of -0.812.
M166E was tested, and the log2 fold difference was -1.02 ± 0.77.
M166I showed a log2 fold difference of 0.468 ± 0.74.
With M166V the log2 fold difference was 0.766 ± 1.
M166C showed a log2 fold difference of 0.727 ± 0.93.
M166A gave a log2 fold difference of -0.0422 ± 1.3.
Work on M166N yielded a log2 fold difference of 0.104 ± 0.77.
M166D gave a log2 fold difference of -0.284 ± 0.97.
In the case of M166T, the log2 fold difference is reported as -0.058 ± 0.33.
M166S gave a log2 fold difference of 0.0933 ± 0.74.
M166K showed a log2 fold difference of -1.3 ± 0.38.
Work on M166Q yielded a log2 fold difference of -0.373 ± 0.75.
K174T showed a log2 fold difference of -0.219 ± 0.87.
K174P was tested, and the log2 fold difference was -0.467 ± 0.46.
Work on K174E yielded a log2 fold difference of 0.783 ± 1.1.
In the case of K174F, the log2 fold difference is reported as 0.43 ± 1.2.
In the case of K174I, the log2 fold difference is reported as 0.852 ± 1.
K174Q showed a log2 fold difference of 0.183 ± 0.43.
In the case of K174R, the log2 fold difference is reported as 0.0885 ± 0.94.
Work on K174Y yielded a log2 fold difference of 0.779 ± 0.77.
K174G gave a log2 fold difference of 0.223 ± 0.92.
Work on K174M yielded a log2 fold difference of -0.0485.
With K174W the log2 fold difference was 0.165 ± 0.93.
Variant K174A has a log2 fold difference of 0.102 ± 0.74.
K174D showed a log2 fold difference of 0.0155 ± 1.1.
For K174H, the log2 fold difference was 0.284 ± 0.47.
With K174N the log2 fold difference was 0.28 ± 0.89.
K174S gave a log2 fold difference of 0.161 ± 1.2.
Variant K174V has a log2 fold difference of 0.285 ± 0.8.
In the case of K174L, the log2 fold difference is reported as 0.0239 ± 1.1.
In the case of K174C, the log2 fold difference is reported as -0.112 ± 0.67.
Variant N179S has a log2 fold difference of 0.604 ± 0.93.
With N179H the log2 fold difference was 0.0378 ± 1.
N179L gave a log2 fold difference of -0.0224 ± 1.1.
In the case of N179R, the log2 fold difference is reported as 0.216 ± 0.89.
With N179T the log2 fold difference was 0.657 ± 1.1.
In the case of N179W, the log2 fold difference is reported as 0.186 ± 1.4.
Work on N179F yielded a log2 fold difference of -0.42 ± 1.2.
Work on N179C yielded a log2 fold difference of -0.411 ± 1.1.
Work on N179G yielded a log2 fold difference of 0.168 ± 0.82.
Variant N179K has a log2 fold difference of -0.649 ± 0.79.
N179I showed a log2 fold difference of -0.405 ± 0.66.
Variant N179Q has a log2 fold difference of 0.426 ± 0.61.
Variant N179P has a log2 fold difference of -1.44 ± 0.28.
In the case of N179M, the log2 fold difference is reported as 0.052 ± 1.2.
In the case of N179V, the log2 fold difference is reported as 0.0686 ± 1.1.
Work on N179A yielded a log2 fold difference of 0.364 ± 0.97.
Work on N179Y yielded a log2 fold difference of -0.109 ± 0.79.
In the case of N179E, the log2 fold difference is reported as 0.757 ± 0.61.
Work on N179D yielded a log2 fold difference of -0.056 ± 0.84.
Variant F180D has a log2 fold difference of -1.05 ± 0.54.
With F180N the log2 fold difference was -1.01 ± 0.55.
In the case of F180A, the log2 fold difference is reported as 0.911 ± 0.93.
With F180V the log2 fold difference was -0.0426 ± 1.
With F180P the log2 fold difference was -1.2 ± 1.3.
For F180W, the log2 fold difference was 0.395 ± 0.46.
With F180C the log2 fold difference was -0.0591 ± 0.88.
F180L was tested, and the log2 fold difference was -0.0235 ± 0.79.
With F180E the log2 fold difference was -1.02 ± 0.83.
With F180K the log2 fold difference was -1.02 ± 0.86.
With F180R the log2 fold difference was -0.757 ± 0.97.
Work on F180H yielded a log2 fold difference of 0.1 ± 0.72.
F180T was tested, and the log2 fold difference was -0.877 ± 1.1.
For F180M, the log2 fold difference was -0.333 ± 0.58.
F180Y gave a log2 fold difference of -0.111 ± 1.1.
For F180I, the log2 fold difference was -0.117 ± 0.69.
For F180S, the log2 fold difference was -0.649 ± 0.94.
Work on F180Q yielded a log2 fold difference of -0.926 ± 0.43.
F180G showed a log2 fold difference of -0.09 ± 0.96.
K172Y showed a log2 fold difference of 0.569 ± 1.1.
K172L gave a log2 fold difference of 0.726 ± 0.58.
With K172D the log2 fold difference was 0.116 ± 0.43.
K172S gave a log2 fold difference of -0.302 ± 1.
K172Q was tested, and the log2 fold difference was -0.145 ± 1.4.
Variant K172P has a log2 fold difference of 0.133 ± 0.84.
K172E was tested, and the log2 fold difference was 0.271 ± 0.97.
Work on K172A yielded a log2 fold difference of -0.394 ± 0.97.
Work on K172M yielded a log2 fold difference of 0.394 ± 2.2.
For K172C, the log2 fold difference was 0.0231 ± 1.1.
Work on K172G yielded a log2 fold difference of 0.0329 ± 0.88.
With K172F the log2 fold difference was 0.891 ± 0.85.
Variant K172H has a log2 fold difference of -0.582 ± 0.62.
Variant K172I has a log2 fold difference of 0.817 ± 0.68.
K172N gave a log2 fold difference of 0.432 ± 0.58.
K172V gave a log2 fold difference of 0.257 ± 1.
K172W gave a log2 fold difference of -0.302 ± 0.96.
With K172T the log2 fold difference was 0.736 ± 0.74.
In the case of K172R, the log2 fold difference is reported as 0.536 ± 0.98.
Work on R177L yielded a log2 fold difference of -0.0484 ± 0.91.
R177H showed a log2 fold difference of -0.152 ± 0.72.
Work on R177Q yielded a log2 fold difference of -0.295 ± 1.5.
Variant R177K has a log2 fold difference of 0.193 ± 0.81.
Variant R177S has a log2 fold difference of -0.209 ± 0.96.
R177T showed a log2 fold difference of 0.147 ± 0.79.
Work on R177F yielded a log2 fold difference of 0.109 ± 0.88.
For R177A, the log2 fold difference was -0.221 ± 1.
For R177N, the log2 fold difference was 0.309 ± 0.93.
Variant R177W has a log2 fold difference of -0.345 ± 0.86.
R177E was tested, and the log2 fold difference was 0.394 ± 0.88.
Work on R177I yielded a log2 fold difference of -0.173 ± 0.86.
For R177D, the log2 fold difference was -0.0777 ± 0.87.
Variant R177M has a log2 fold difference of -0.0305 ± 0.47.
For R177V, the log2 fold difference was 0.205 ± 1.
Work on R177G yielded a log2 fold difference of 0.346 ± 1.1.
R177Y was tested, and the log2 fold difference was 0.732 ± 0.63.
For R177P, the log2 fold difference was -0.62 ± 0.77.
R177C was tested, and the log2 fold difference was -0.0847 ± 0.61.
